From the supplement of paper PMC11417369
± gives the standard deviation of the averaged measurements. The list shows a part of the results.

The sequences below were run on PfAP2-I AP2 domain 3 (GST-tagged) (assay: gcPBM binding intensity (ln(normalized median fluorescence intensity)); higher = stronger DNA binding).
Procedure, shortened: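 An Agilent 4 × 180k array of primer-extended double-stranded 36-bp intergenic genomic probes, with negative controls, was incubated for 1 h with GST-tagged P. falciparum DNA-binding domains expressed in E. coli. Alexa488 anti-GST antibody detected bound protein, scanned at 488 nm. Binding intensity is the highest Masliner-normalised natural-log median intensity across replicate spots of either probe orientation.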
For “ATAATATATATATGTAGTACGTATATAATTTTAATA [XGTACX_site5228]”, the “gcPBM binding intensity (ln)” value was 7.83 ± 0.26.
With “AATTAAAATTTTTTTTTTTTTTTTTTTTTTCTATTA [CACACA_negctrl_site1585]” the “gcPBM binding intensity (ln)” value was 7.22 ± 0.46.
“AAAAATAAAAAAAACACACATACCTTATTTTTGTTC [CACACA_site2634]” was tested, and the “gcPBM binding intensity (ln)” value was 7.78 ± 0.9.
“AAATTGATATTATATATATATATATATATATATATA [GTGCAC_negctrl_site482]” was tested, and the “gcPBM binding intensity (ln)” value was 9.14 ± 0.6.
“TATATATCCTTCTATGCATGCATATGGATAGATTTC [TGCATGCA_site58]” was tested, and the “gcPBM binding intensity (ln)” value was 7.61 ± 0.51.
“TATATATAGAAACACACACACAAAAAAAAAAAAAAA [CACACA_site1506]” was tested, and the “gcPBM binding intensity (ln)” value was 8.03 ± 0.5.
“ATTTAAAAAACTTTTAGCAAAAAAAAAAAATAATAA [TGCATGCA_negctrl_site191]” was tested, and the “gcPBM binding intensity (ln)” value was 7.61 ± 0.49.
“AATATATATAATAATTGTACAATACGTATGTTATAT [XGTACX_site8745]” was tested, and the “gcPBM binding intensity (ln)” value was 8.04 ± 0.46.
In the case of “TGTATACATAATATTTGTACATATTGTTATATATAT [XGTACX_site740]”, the “gcPBM binding intensity (ln)” value is reported as 8.23 ± 0.76.
With TCCTATATCACAAATGTGCACAGAAAAAAAAAATAT the “gcPBM binding intensity (ln)” value was 10.2 ± 0.22.
“ATATATATATACATACGTACACACAAATATTAAAAT [XGTACX_site4007]” was tested, and the “gcPBM binding intensity (ln)” value was 9.19 ± 0.11.
“TTATAAAAAAAAAAAAAAAAGAAAATGAATTCACGA [CACACA_negctrl_site1248]” was tested, and the “gcPBM binding intensity (ln)” value was 8.19 ± 0.3.
With “TGTTATATATTATATACATGCACAAAAGCAACACAA [TGCATGCA_site1009]” the “gcPBM binding intensity (ln)” value was 8.71 ± 0.4.
In the case of “TTCGACGAGAGCAAGTGTACTCTTGAATAATTTATA [XGTACX_site7613]”, the “gcPBM binding intensity (ln)” value is reported as 7.61 ± 0.33.
With “ATTTTATTTTTTGAGTGTACTAGTTCAACAACTCCG [XGTACX_site8600]” the “gcPBM binding intensity (ln)” value was 8 ± 0.45.
In the case of “ATTATATATACATATACACACATACGTACATACATA [CACACA_site9194]”, the “gcPBM binding intensity (ln)” value is reported as 8.13 ± 0.49.
With “ATTTCATACAGACACACACACAAACAAACATATATA [CACACA_site979]” the “gcPBM binding intensity (ln)” value was 8.09 ± 0.23.
“GTGAAGGTTTATATGTGTACATATATGTATTATATA [XGTACX_site326]” was tested, and the “gcPBM binding intensity (ln)” value was 7.78 ± 0.32.
“GACATTTCTTGGGATACATGCATGTCCCAGAACAAA [TGCATGCA_site271]” was tested, and the “gcPBM binding intensity (ln)” value was 7.83 ± 0.7.
For “TTTAATAAATTGTGTACACAAAACATATAAATTTCG [CACACA_site5644]”, the “gcPBM binding intensity (ln)” value was 8.21 ± 0.071.
“TTTTTTTTTTTTAATGCACACAGTGAACTTTTACTT [CACACA_site3567]” was tested, and the “gcPBM binding intensity (ln)” value was 11.3 ± 0.36.
“ATTATCAAGACATTGCGTACTTAAAAAAAAAAAAAT [XGTACX_site6347]” was tested, and the “gcPBM binding intensity (ln)” value was 7.81 ± 0.42.
“CATATATAATAATATTGTACATATATAATAATAATA [XGTACX_site3338]” was tested, and the “gcPBM binding intensity (ln)” value was 7.68 ± 0.33.
For “TTATTATTCATATATTCACACATTAAAATTTTTCAA [CACACA_site4243]”, the “gcPBM binding intensity (ln)” value was 7.74 ± 0.35.
With “CATAAAAATGGATACACACACATAATATATATATAT [CACACA_site3619]” the “gcPBM binding intensity (ln)” value was 9.08 ± 0.11.
With “TAATTTTTTTTTTATTGTACTTAATATTTTTAATTT [XGTACX_site5929]” the “gcPBM binding intensity (ln)” value was 7.62 ± 0.45.
In the case of “AAAAAAATTAATGTGTGTACTTAGATATAATGTTTA [XGTACX_site8862]”, the “gcPBM binding intensity (ln)” value is reported as 7.66 ± 0.35.
In the case of “TTACAAATATTATAAAGTACAAACCAGTAGATTTTG [XGTACX_site2272]”, the “gcPBM binding intensity (ln)” value is reported as 7.49 ± 0.54.
For “TCATTCTAAATATAAACACACATAAATATGTACATT [CACACA_site7555]”, the “gcPBM binding intensity (ln)” value was 7.68 ± 0.4.
With “TTTTTTTTTTTTAAAAGTACATAGTAGTAATTATAG [XGTACX_site4232]” the “gcPBM binding intensity (ln)” value was 7.92 ± 0.42.
For “TATTTTTTTTTTTTTTTTTTTACCTTTCCACTCAAA [CACACA_negctrl_site1454]”, the “gcPBM binding intensity (ln)” value was 7.58 ± 0.43.
In the case of “TCTAGGAAAAATTATAGTACACAAAAATATATATAT [XGTACX_site4136]”, the “gcPBM binding intensity (ln)” value is reported as 8.89 ± 0.38.
With “ATATATACATATACTATATCTTTTATTTTTATTATT [GTGCAC_negctrl_site127]” the “gcPBM binding intensity (ln)” value was 7.61 ± 0.57.
In the case of “TTATATGCACTTTTTGCACACGTATGAATAACAAAA [CACACA_site1811]”, the “gcPBM binding intensity (ln)” value is reported as 10.8 ± 0.86.
For “TATGACACTTTGAAGGGTACATGCAGAAAAAAAAAA [XGTACX_site569]”, the “gcPBM binding intensity (ln)” value was 8.41 ± 0.81.
With “TATATATATTAAAAACGTACAAAATAAGAATTAATT [XGTACX_site5979]” the “gcPBM binding intensity (ln)” value was 8.06 ± 0.73.
“GGATATATTTTATGTACACACACATATAAGGGATTA [CACACA_site4181]” was tested, and the “gcPBM binding intensity (ln)” value was 8.02 ± 0.3.
With “TATAAATAAATAAACACACACAAATAAAATAAAAAA [CACACA_site7623]” the “gcPBM binding intensity (ln)” value was 7.88 ± 0.67.
With “TTTTTTTGCCATATTACACACACACCGGTAAACCCC [CACACA_site8475]” the “gcPBM binding intensity (ln)” value was 8.48 ± 0.39.
For “ACATATTAGGGTCATGAACACACAAAAAAAAAAAAA [CACACA_site8218]”, the “gcPBM binding intensity (ln)” value was 7.96 ± 0.57.
With “TTTATTTATTTATTCTTATTTTTTTTTTTTTTTACT [CACACA_negctrl_site257]” the “gcPBM binding intensity (ln)” value was 7.42 ± 0.74.
For “AATTCAGCTTTACAACGTACACAATCATATGTCTAT [XGTACX_site8113]”, the “gcPBM binding intensity (ln)” value was 7.96 ± 0.67.
For “ATGAAGATTTAAAAATGTACATATGATCTATGTCCT [XGTACX_site8409]”, the “gcPBM binding intensity (ln)” value was 7.43 ± 0.55.
“TAATACATAAATGATTGTACATAAGAATTGAAACAT [XGTACX_site4583]” was tested, and the “gcPBM binding intensity (ln)” value was 7.84 ± 0.64.
